Data published in the supplement of paper PMC10185492.
This is one part of the list. Read counts after selection give these values, which scatter widely.

What follows are substances tested on SARS-CoV-2 3CLpro (nsp5) (assay: substrate phage enrichment score (protease-eluted vs HEPES control, +1 offset) (ratio); higher = better cleaved substrate). Settings: selection round: 4; protease elution time: 15 min.
Description: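 Random heptapeptide substrate phage display (M13 pIII fusion, heptapeptide between an N-terminal biotinylated AviTag GLNDIFEAQKIEWHE and pIII; phages immobilised on streptavidin) eluted by cleavage with 50 nM protease in 20 mM HEPES at 37 °C. Selected phages were NGS sequenced, and the enrichment score is (reads in protease sample + 1)/(reads in HEPES blank-selection control + 1).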
For TDLNGTQ, the “substrate phage enrichment score” value was > 36. In the case of LRRSCRV, the “substrate phage enrichment score” value is reported as > 31. With DVFSAGD the “substrate phage enrichment score” value was 7.6. DANLGTC was tested, and the “substrate phage enrichment score” value was 2.67. In the case of RAPTAAD, the “substrate phage enrichment score” value is reported as > 37. TKPNCSP was tested, and the “substrate phage enrichment score” value was 0.6. In the case of GIPLQAQ, the “substrate phage enrichment score” value is reported as > 36. In the case of RVVVRPH, the “substrate phage enrichment score” value is reported as 0.706. DKKGEAN was tested, and the “substrate phage enrichment score” value was 4.75. NQWNEGY was tested, and the “substrate phage enrichment score” value was > 41. In the case of RDGTTTG, the “substrate phage enrichment score” value is reported as > 32. With DNKPSYN the “substrate phage enrichment score” value was 6. WNPCLTC was tested, and the “substrate phage enrichment score” value was 0.917. For HMGTCGH, the “substrate phage enrichment score” value was 0.389. With QVGAMTA the “substrate phage enrichment score” value was > 104. For MSTRLQC, the “substrate phage enrichment score” value was > 175. In the case of RRRRCCR, the “substrate phage enrichment score” value is reported as > 23. ARKRPYD was tested, and the “substrate phage enrichment score” value was 6.33. In the case of CRRTRRI, the “substrate phage enrichment score” value is reported as 0.0769. For SCAAAHH, the “substrate phage enrichment score” value was 0.867. In the case of NTAAHHH, the “substrate phage enrichment score” value is reported as 0.689. In the case of CGAQISI, the “substrate phage enrichment score” value is reported as > 21. For TAPTKLQ, the “substrate phage enrichment score” value was > 78. In the case of VRVSSPG, the “substrate phage enrichment score” value is reported as 1.19. With PSLYFQG the “substrate phage enrichment score” value was 3.82. With QSPNSSG the “substrate phage enrichment score” value was 25.3. SAPWGTY was tested, and the “substrate phage enrichment score” value was > 34. RGCTWSE was tested, and the “substrate phage enrichment score” value was > 94. In the case of STAHHHH, the “substrate phage enrichment score” value is reported as 0.645. In the case of QKTGVDH, the “substrate phage enrichment score” value is reported as > 24. With EGFTSTQ the “substrate phage enrichment score” value was > 31. With TCPDVRL the “substrate phage enrichment score” value was 0.692. For SWAAHHH, the “substrate phage enrichment score” value was 2.38. PVFADTL was tested, and the “substrate phage enrichment score” value was > 28. For ECKVQLN, the “substrate phage enrichment score” value was 39. With RTNATLQ the “substrate phage enrichment score” value was > 33. PTFPNKE was tested, and the “substrate phage enrichment score” value was 0.938. DCAHRHG was tested, and the “substrate phage enrichment score” value was 1.25. In the case of FPAAHHH, the “substrate phage enrichment score” value is reported as 1.44. In the case of AAETDRR, the “substrate phage enrichment score” value is reported as > 23. For KPFPQPR, the “substrate phage enrichment score” value was 2.03. In the case of AVGDGSR, the “substrate phage enrichment score” value is reported as 3.4. With SDHTLKH the “substrate phage enrichment score” value was 0.613. In the case of SRVKAHT, the “substrate phage enrichment score” value is reported as 1.14. For QMAVTPK, the “substrate phage enrichment score” value was 0.833. With IKAAHHH the “substrate phage enrichment score” value was 0.727. In the case of RGCRRTV, the “substrate phage enrichment score” value is reported as 14.5. In the case of PIPEVAQ, the “substrate phage enrichment score” value is reported as 4.4. In the case of LEFDLTT, the “substrate phage enrichment score” value is reported as > 35. For EQGRPSV, the “substrate phage enrichment score” value was 3.25. In the case of ETAAHHH, the “substrate phage enrichment score” value is reported as 1.3. LSKSCKH was tested, and the “substrate phage enrichment score” value was 2. KAQNQRW was tested, and the “substrate phage enrichment score” value was > 29. With RTQRTKG the “substrate phage enrichment score” value was 7. In the case of RFCRRMG, the “substrate phage enrichment score” value is reported as > 43. In the case of LWQDRTE, the “substrate phage enrichment score” value is reported as > 24. For TTAGTVT, the “substrate phage enrichment score” value was 0.692. ESSAHHH was tested, and the “substrate phage enrichment score” value was 1.33. For PEPGSPP, the “substrate phage enrichment score” value was 12. For SAAAHHR, the “substrate phage enrichment score” value was 0.9. In the case of ASTSWVK, the “substrate phage enrichment score” value is reported as 2.5. In the case of CIGAFKR, the “substrate phage enrichment score” value is reported as 1.17. With RTNSNYR the “substrate phage enrichment score” value was > 21. In the case of VMWCLHG, the “substrate phage enrichment score” value is reported as > 45. With SREKQSY the “substrate phage enrichment score” value was 1.44. With LYAPRTT the “substrate phage enrichment score” value was > 24. With EGAPQTH the “substrate phage enrichment score” value was > 53. With KDLRSQA the “substrate phage enrichment score” value was 0.217. ESEQMSP was tested, and the “substrate phage enrichment score” value was 0.762. With RPGDNGK the “substrate phage enrichment score” value was > 45. In the case of LPCVSEH, the “substrate phage enrichment score” value is reported as > 31. PNNQGGS was tested, and the “substrate phage enrichment score” value was 1.09. For KEMSSLQ, the “substrate phage enrichment score” value was > 31. For SATQTTS, the “substrate phage enrichment score” value was > 38. With RPSASQR the “substrate phage enrichment score” value was 1.06. KYAPSSS was tested, and the “substrate phage enrichment score” value was > 33. GDEMNPA was tested, and the “substrate phage enrichment score” value was 2. With YDVQKIR the “substrate phage enrichment score” value was 1.52. With RPAASRQ the “substrate phage enrichment score” value was 7.25. For TPDLHDR, the “substrate phage enrichment score” value was 12.5. In the case of EDRLYKP, the “substrate phage enrichment score” value is reported as > 35. For WERTSSC, the “substrate phage enrichment score” value was > 23. In the case of LHFQGGS, the “substrate phage enrichment score” value is reported as 1.5. In the case of PQANVLQ, the “substrate phage enrichment score” value is reported as 0.3. In the case of SPAPAPC, the “substrate phage enrichment score” value is reported as 0.368. For TPCRLQH, the “substrate phage enrichment score” value was > 44. CTGYCYS was tested, and the “substrate phage enrichment score” value was 3.89. With HWTREYG the “substrate phage enrichment score” value was > 36. With RSFGPVK the “substrate phage enrichment score” value was 8.25. IRSGDKQ was tested, and the “substrate phage enrichment score” value was > 25. For TETPYVP, the “substrate phage enrichment score” value was > 22. For VPPQMRV, the “substrate phage enrichment score” value was > 47. For HRAGYMH, the “substrate phage enrichment score” value was 1.65. CVHATSS was tested, and the “substrate phage enrichment score” value was 3.33. With NRTKLPC the “substrate phage enrichment score” value was 0.0556. For PKLQSHQ, the “substrate phage enrichment score” value was > 56. In the case of CRFMGYH, the “substrate phage enrichment score” value is reported as > 22. For KPTQWLQ, the “substrate phage enrichment score” value was > 33. With NRSGNMQ the “substrate phage enrichment score” value was 3.29. With KPNGQAY the “substrate phage enrichment score” value was 0.318.
